Reference: PubChem BioAssay AID1745853 (National Center for Advancing Translational Sciences (NCATS), 2022)
The list shows a part of the results. Further columns of the screen follow, without active or inactive calls.

Legend:
Assay in all cases: Primary Screen for Target Class Profiling of Small Molecule Inhibitors of Methyltransferases
[1] = target: Glycine N-methyltransferase (Homo sapiens) (UniProt Q14749); conditions: purified enzyme, MTase-Glo SAH luminescence; measured here: GNMT inhibition; at 40 µM; stronger effect = lower value
How it was run: (§1)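 Each enzyme was reacted with SAM and its substrate, with compounds tested once at 40 uM; SAH formed was read by MTase-Glo luminescence.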

[2] = target: Guanidinoacetate N-methyltransferase (Homo sapiens) (UniProt Q14353); conditions: purified enzyme, MTase-Glo SAH luminescence; measured here: GAMT inhibition; at 40 µM; stronger effect = lower value
How it was run: as §1

[3] = target: Histamine N-methyltransferase (Homo sapiens) (UniProt P50135); conditions: purified enzyme, MTase-Glo SAH luminescence; measured here: HNMT inhibition; at 40 µM; stronger effect = lower value
How it was run: as §1

[4] = target: Nicotinamide N-methyltransferase (Homo sapiens) (UniProt P40261); conditions: purified enzyme, MTase-Glo SAH luminescence; measured here: NNMT inhibition; at 40 µM; stronger effect = lower value
How it was run: as §1

[5] = target: Phenylethanolamine N-methyltransferase (Homo sapiens) (UniProt P11086); conditions: purified enzyme, MTase-Glo SAH luminescence; measured here: PNMT inhibition; at 40 µM; stronger effect = lower value
How it was run: as §1
% is scaled to controls: 0 for no effect and ±100 for the full control effect.

O=C(CCn1ccc2cc(S(=O)(=O)N3CCCC3)ccc21)NCc1cccs1
activity change, negative = inhibition [1]: -0.059%
activity change, negative = inhibition [2]: 0.392%
activity change, negative = inhibition [3]: 3.73%
activity change, negative = inhibition [4]: 0%
activity change, negative = inhibition [5]: 1.3%

CC(=O)N1CCC2(CC1)CC(c1cccc(C(F)(F)F)c1)=NO2
activity change, negative = inhibition [1]: 0.225%
activity change, negative = inhibition [2]: 2.84%
activity change, negative = inhibition [3]: 2.8%
activity change, negative = inhibition [4]: -2.6%
activity change, negative = inhibition [5]: -1.82%

CNC1(C)C2CCC(C2)C1(C)C (centres undefined)
activity change, negative = inhibition [1]: -0.188%
activity change, negative = inhibition [2]: 2.28%
activity change, negative = inhibition [3]: 3.3%
activity change, negative = inhibition [4]: -10.5%
activity change, negative = inhibition [5]: -3.19%

CN(C)CCC(CSc1ccccc1)Nc1ccc(S(=O)(=O)NC(=O)c2ccc(N3CCN(Cc4ccccc4-c4ccc(Cl)cc4)CC3)cc2)cc1[N+](=O)[O-] (centres undefined)
activity change, negative = inhibition [1]: -7.76%
activity change, negative = inhibition [3]: -13.2%

CS(=O)c1ccc(-c2nc(-c3ccc(F)cc3)c(-c3ccncc3)[nH]2)cc1 (centres undefined)
activity change, negative = inhibition [1]: -31.7%
activity change, negative = inhibition [2]: -8.8%
activity change, negative = inhibition [3]: -33.5%
activity change, negative = inhibition [4]: -37.5%
activity change, negative = inhibition [5]: -23.3%

Cc1c(Cn2c(C)nc3c(C(=O)O)cc(N4CCOCC4)cc32)cccc1C(F)(F)F
activity change, negative = inhibition [1]: 5.58%
activity change, negative = inhibition [2]: 8.81%
activity change, negative = inhibition [3]: 13.5%
activity change, negative = inhibition [4]: -15%
activity change, negative = inhibition [5]: 9.89%

CCN1C(=O)c2cc(C(=O)NCc3ccccc3OC)nn2CC1(C)C(=O)NC1CCCC1 (centres undefined)
activity change, negative = inhibition [1]: 3.81%
activity change, negative = inhibition [2]: 0%
activity change, negative = inhibition [3]: -4.8%
activity change, negative = inhibition [4]: 5.63%
activity change, negative = inhibition [5]: 4.17%

O=C(NCc1ccc(Oc2ccccc2)cc1)c1nc(-c2cc(Br)c(O)c(Br)c2)no1
activity change, negative = inhibition [1]: -7.43%
activity change, negative = inhibition [2]: -48%
activity change, negative = inhibition [3]: -61.9%
activity change, negative = inhibition [4]: -85.2%
activity change, negative = inhibition [5]: -27.6%

CN1CCc2[nH]cnc2C12CCN(C(=O)Cc1ccc(F)cc1Cl)CC2
activity change, negative = inhibition [1]: -4.66%
activity change, negative = inhibition [2]: 0.818%
activity change, negative = inhibition [3]: -5.94%
activity change, negative = inhibition [4]: -2.89%
activity change, negative = inhibition [5]: 1.4%

CN[C@@H]1[C@H](O[C@H]2[C@H](O[C@@H]3[C@@H](O)[C@H](O)[C@@H](N=C(N)N)[C@H](O)[C@H]3N=C(N)N)O[C@@H](C)[C@]2(O)C=O)O[C@@H](CO)[C@H](O)[C@H]1O
activity change, negative = inhibition [1]: 3.1%
activity change, negative = inhibition [2]: -2.1%
activity change, negative = inhibition [3]: 2.38%
activity change, negative = inhibition [4]: -12.4%
activity change, negative = inhibition [5]: -5.54%

CC(=O)OC12CC(C)C(OC(=O)c3ccccc3)C1/C=C(/C)C(OC(=O)c1ccccc1)CC(=O)C(C)(C)/C=C/C(C)C2=O (centres undefined)
activity change, negative = inhibition [1]: 0.934%
activity change, negative = inhibition [2]: 2.66%
activity change, negative = inhibition [3]: 12%
activity change, negative = inhibition [4]: -17%
activity change, negative = inhibition [5]: -3.03%

COc1ccc(-c2nnc(-c3ccc(OC)c(S(=O)(=O)N4CCCCCC4)c3)o2)cc1OC
activity change, negative = inhibition [1]: -4.55%
activity change, negative = inhibition [2]: 1.84%
activity change, negative = inhibition [3]: 12%
activity change, negative = inhibition [4]: 2.16%
activity change, negative = inhibition [5]: 7.27%

C=C1C(=O)O[C@@H]2C[C@H](C)[C@@]3(O)C=C(C(C)=O)[C@]4(CC3C[C@H]12)C(=O)O[C@H]1C[C@@H](C)C(CCC(C)=O)=CC[C@H]14 (some centres undefined)
activity change, negative = inhibition [1]: -1.38%
activity change, negative = inhibition [2]: 4.7%
activity change, negative = inhibition [3]: 10.3%
activity change, negative = inhibition [4]: -9.06%
activity change, negative = inhibition [5]: 5.42%

COc1cccc(CNC(=O)Cn2nc3ccc(SCc4ccc(Cl)cc4)nn3c2=O)c1
activity change, negative = inhibition [1]: -14.6%
activity change, negative = inhibition [2]: 0%
activity change, negative = inhibition [3]: 7.79%
activity change, negative = inhibition [4]: 3.02%
activity change, negative = inhibition [5]: 5.32%

O=c1[nH]c2ccc(S(=O)(=O)Nc3ccc(Br)cc3F)cc2[nH]1
activity change, negative = inhibition [1]: 6.66%
activity change, negative = inhibition [2]: 0%
activity change, negative = inhibition [3]: 10.6%
activity change, negative = inhibition [4]: 4.81%
activity change, negative = inhibition [5]: -16.8%

COC(=O)Cn1c(=O)oc2cc(S(=O)(=O)NCCc3sccc3C)ccc21
activity change, negative = inhibition [1]: 0.073%
activity change, negative = inhibition [2]: 3.04%
activity change, negative = inhibition [3]: 6.24%
activity change, negative = inhibition [4]: -2.07%
activity change, negative = inhibition [5]: 1.47%

CC(C)Cn1c(=O)c2ccccc2n2c(SCC(=O)NCc3ccc(Cl)cc3)nnc12
activity change, negative = inhibition [1]: 6.54%
activity change, negative = inhibition [2]: 0.526%
activity change, negative = inhibition [3]: 12.5%
activity change, negative = inhibition [4]: 4.77%
activity change, negative = inhibition [5]: 7.98%

CC(C)NC(=O)c1ccc2c(=O)nc3c(-c4cccc(F)c4)n[nH]n3c2c1
activity change, negative = inhibition [1]: 3.04%
activity change, negative = inhibition [2]: 0%
activity change, negative = inhibition [3]: 1.1%
activity change, negative = inhibition [4]: 5.7%
activity change, negative = inhibition [5]: -0.72%

CCc1ccc(NC(=O)CSc2nnc3n(CCCOC(C)C)c(=O)c4ccccc4n23)cc1
activity change, negative = inhibition [1]: -7.43%
activity change, negative = inhibition [2]: 3.45%
activity change, negative = inhibition [3]: 0.826%
activity change, negative = inhibition [4]: -1.69%
activity change, negative = inhibition [5]: 0.46%

CCCNC(=O)N1CCCCCC1CN1CCCC1 (centres undefined)
activity change, negative = inhibition [1]: -4.19%
activity change, negative = inhibition [2]: -2.29%
activity change, negative = inhibition [3]: -1.2%
activity change, negative = inhibition [4]: -4.94%
activity change, negative = inhibition [5]: -1.59%

CC(CCc1ccccc1)NC(=O)CCn1ccc2cc(S(=O)(=O)N3CCCCC3)ccc21 (centres undefined)
activity change, negative = inhibition [1]: 6.13%
activity change, negative = inhibition [2]: 0.65%
activity change, negative = inhibition [3]: 7.02%
activity change, negative = inhibition [4]: -0.004%
activity change, negative = inhibition [5]: 3.19%

Cc1nc(C2CC23CCN(S(=O)(=O)c2cccc(F)c2)CC3)no1 (centres undefined)
activity change, negative = inhibition [1]: -5.18%
activity change, negative = inhibition [2]: -8.24%
activity change, negative = inhibition [3]: -4.49%
activity change, negative = inhibition [4]: -9.9%
activity change, negative = inhibition [5]: -10.2%

CC(O)(CC(=O)O)CC(=O)OCc1ccc(O[C@@H]2O[C@H](CO)[C@@H](O)[C@H](O)[C@H]2O)cc1 (some centres undefined)
activity change, negative = inhibition [1]: 4.59%
activity change, negative = inhibition [2]: 6.5%
activity change, negative = inhibition [3]: 8.94%
activity change, negative = inhibition [4]: -4.08%
activity change, negative = inhibition [5]: 6.03%

CCc1ccc(NC(=O)CSc2nnc3[nH]c(=O)c(C(C)(C)C)nn23)cc1
activity change, negative = inhibition [1]: -11%
activity change, negative = inhibition [2]: -1.79%
activity change, negative = inhibition [3]: -2.26%
activity change, negative = inhibition [4]: -10.5%
activity change, negative = inhibition [5]: -6.65%

COc1ccc2c(c1)c(NC(C)=O)c1n2CC(C)(C(=O)NC2CCCC2)N(C2CCCCC2)C1=O (centres undefined)
activity change, negative = inhibition [1]: 3.88%
activity change, negative = inhibition [2]: 0%
activity change, negative = inhibition [3]: 6.93%
activity change, negative = inhibition [4]: 7.98%
activity change, negative = inhibition [5]: 1.03%

C/C=C(\C)C(=O)OC1C(C)C2(O)C3C=C(C)C(=O)C3CC(CO)=CC2C2C(C)(C)C12OC(C)=O (centres undefined)
activity change, negative = inhibition [1]: -4.43%
activity change, negative = inhibition [2]: -15.2%
activity change, negative = inhibition [3]: 5.35%
activity change, negative = inhibition [4]: -29.4%
activity change, negative = inhibition [5]: -12.6%

COCC(c1ccc(C(F)(F)F)cc1)N1CCN(C2(C)CCN(C(=O)c3c(C)ncnc3C)CC2)CC1C (centres undefined)
activity change, negative = inhibition [1]: -0.79%
activity change, negative = inhibition [3]: 5.71%

O=C(CCc1nnc2n(CCc3ccccc3)c(=O)c3ccccc3n12)N1CCN(c2ccccn2)CC1
activity change, negative = inhibition [1]: -24.6%
activity change, negative = inhibition [2]: 2.49%
activity change, negative = inhibition [3]: -8.63%
activity change, negative = inhibition [4]: -19.5%
activity change, negative = inhibition [5]: -4.07%

CCOc1ccc(C(=O)Cn2nc3n(CCC(C)C)c(=O)c4ccccc4n3c2=O)cc1
activity change, negative = inhibition [1]: 6.22%
activity change, negative = inhibition [2]: 1.77%
activity change, negative = inhibition [3]: 10.9%
activity change, negative = inhibition [4]: -4.43%
activity change, negative = inhibition [5]: 4.47%
